According to PubChem BioAssay AID1508623 (National Center for Advancing Translational Sciences (NCATS), 2021):
The whole screen tested about 48,000 compounds, of which about 450 (0.94%) were called active. The shares of active, inactive and inconclusive entries below differ from those in the screen. Calls come from the whole dose curve; as a rule, active = well fitted inhibition curve with a large enough effect; inconclusive = small, poorly fitted or top-dose-only effect; inactive = no such curve, though single readings can be large or run the other way. Where the call is inconclusive, the potency comes from a doubtful curve fit.

Experiment: Primary qHTS for Identification of Small Molecule Inhibitors of Huntingtin Promoter Activity; note: nearly all actives have a fitted effect of over 50% in size
Details: HEK293 HTT promoter firefly luciferase reporter (activity 0% = vehicle and -100% = no light), 24 h; activity change, negative = inhibition: at 57.5 µM (top of the series)
Procedure, shortened: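 Luminescence was read after Dual-Glo reagent and a 10 min room-temperature incubation. Values were normalized to vehicle (0% activity) and zero RLU (-100% activity). Reporter HEK293 cells had been exposed to compounds (up to 57.5 uM final) for 24 h.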
Potency is the fitted concentration of half-maximal effect; tags give direction and shape of the fitted curve.

SMILES | Potency | activity change, negative = inhibition
Nc1c(C(=O)c2ccccc2)sc(Nc2ccc(Cl)c(Cl)c2)c1C(=O)Nc1ccccc1 | active: 28.2 µM | –
Cc1ccc2c(c1)N(C(=O)N1CCC(C(=O)NCc3ccccc3F)CC1)CC(C)O2 (stereo not drawn) | inconclusive: 12.6 µM [inhibitor, partial curve] | –
O=S(=O)(c1ccccc1)c1nc(-c2ccccc2F)oc1N1CCOCC1 | inconclusive: 39.8 µM [inhibitor, single point] | –
COc1ccc(C(=O)Nc2nc3c(s2)Cc2cc(OC)ccc2-3)cc1 | inconclusive: 39.8 µM [inhibitor, single point] | –
COc1ccc(NC(=O)CSc2oc(-c3ccco3)nc2S(=O)(=O)c2ccccc2)c(OC)c1 | inconclusive: 35.5 µM [inhibitor, single point] | –
Cc1ccc(Nc2nc(C)c(NC(=O)c3ccc(C)cc3)c(Nc3ccc(C)cc3)n2)cc1 | inconclusive: 31.6 µM [inhibitor, single point] | –
CCOc1ccc(C(=O)Nc2ccc3oc(-c4ccncc4)nc3c2)cc1 | inconclusive: 2 µM [inhibitor, full curve, poor fit] | –
CCCNc1nc2c(c(=O)n(C)c(=O)n2C)n1CC(O)COc1ccccc1 (stereo not drawn) | – | inactive: -5%
Cc1ccc(NC(=O)Cn2cc(C(=O)C3CCCCC3)c3ccccc32)c(C)c1 | inconclusive: 35.5 µM [inhibitor, single point] | –
Cn1c(=O)n(C)c2cc(NS(=O)(=O)c3ccc(C(C)(C)C)cc3)c(NCc3ccccc3)cc21 | – | inactive: 98.7%
Cc1cccc(C(=O)Nc2nnc(S(=O)(=O)N3CCCc4ccccc43)s2)c1 | inconclusive: 25.1 µM [inhibitor, partial curve, poor fit] | –
Cc1ccc(-c2nnc(Nc3cccc(Br)c3)c3ccccc23)cc1S(=O)(=O)NCC1CCCO1 (stereo not drawn) | inconclusive: 17.8 µM [inhibitor, partial curve] | –
CCN1c2ccccc2-c2nc(SCC(=O)Nc3cc(F)ccc3F)ncc2S1(=O)=O | inconclusive: 25.1 µM [inhibitor, partial curve, poor fit] | –
O=c1c2ccccc2nc(N2CCN(c3cccc(Cl)c3)CC2)n1-c1ccccc1 | inconclusive: 22.4 µM [inhibitor, single point] | –
CCC(C(=O)N1CCN(c2ccc(OC)cc2)CC1)n1nc(C)n2c(cc3occc32)c1=O (stereo not drawn) | inconclusive: 28.2 µM [inhibitor, partial curve, poor fit] | –
COc1ccc(Nc2c3c(nc4nncn24)CCC3)cc1Cl | inconclusive: 7.08 µM [inhibitor, partial curve] | –
O=C(Nc1ccccc1C(F)(F)F)N1CCC2(CC1)Oc1ccccc1C(=O)N2Cc1ccccc1F | inconclusive: 31.6 µM [inhibitor, single point] | –
O=C(COc1ccccc1)Nc1nnc(SCc2cc(=O)c3ccccc3[nH]2)s1 | inconclusive: 28.2 µM [inhibitor, single point] | –
CCc1ccccc1Nc1cc(C(=O)NCCCN(C)C2CCCCC2)c2ccccc2n1 | – | inactive: -21.4%
Cc1ccc(C)c(N2CCN(C(=O)c3nn(C)c4c3CS(=O)(=O)c3ccccc3-4)CC2)c1 | inconclusive: 20 µM [inhibitor, partial curve, poor fit] | –

SMILES | Potency | activity change, negative = inhibition
COc1ccc(C=CC(=O)Nc2ccccc2C(=O)O)cc1OC | inconclusive: 0.611 µM [inhibitor, full curve] | –
Cc1ccc(C2c3[nH]c4ccccc4c3CCN2C(=O)CCc2ccccc2)cc1 (stereo not drawn) | inconclusive: 15.8 µM [inhibitor, partial curve, poor fit] | –
Oc1ccc(C2=Cc3ccc(O)cc3OC2)cc1 | inconclusive: 21.7 µM [inhibitor, partial curve] | –
Clc1ccc(-c2nnn3c2nc(NCc2ccc4c(c2)OCO4)c2ccccc23)cc1 | – | inactive: 0.351%
CCCc1cc(N2CCN(c3ccc(OC)cc3)CC2)n2cnnc2n1 | inconclusive: 14.1 µM [inhibitor, partial curve, poor fit] | –
COc1ccccc1-c1nc(SCC(=O)Nc2ccc(C)c(C)c2)n[nH]1 | inconclusive: 31.6 µM [inhibitor, partial curve, poor fit] | –
CCc1nn2c(=O)cc(COC(=O)c3ccccc3NC(=O)c3cccs3)nc2s1 | inconclusive: 7.94 µM [inhibitor, single point] | –
O=C(CCn1ccc2cc(S(=O)(=O)N3CCCC3)ccc21)NCc1ccccc1Cl | inconclusive: 35.5 µM [inhibitor, partial curve, poor fit] | –
O=C(COc1ccccc1)Nc1ccc2nc(SCC(=O)N3CCCC3)sc2c1 | – | inactive: 5.44%
CCCCc1nc2cc(C=CC(=O)NO)ccc2n1CCN(CC)CC | – | inactive: 199%
Fc1ccc(N2CCN(c3ncnc4c3nc3n4CCCC3)CC2)cc1 | inconclusive: 15.8 µM [inhibitor, partial curve, poor fit] | –
COc1ccc(C2c3c(-c4ccc(F)cc4)n[nH]c3C(=O)N2c2ccccc2)cc1OC (stereo not drawn) | – | inactive: -2.18% [at 11.5 µM]
CCOC(=O)c1ccc(NC(=O)c2ccc(-c3cccc(Cl)c3C)o2)cc1 | – | inactive: -7.29%
CCOc1ccc(CCNC(=O)c2cc3c(-c4ccccc4F)nn(C)c3s2)cc1OCC | inconclusive: 15.8 µM [inhibitor, partial curve, poor fit] | –
Oc1c(Cl)cc(Cl)cc1Sc1cc(Cl)cc(Cl)c1O | inconclusive: 39.8 µM [inhibitor, single point] | –
C=CCc1ccccc1OCC(O)CNC(C)C (stereo not drawn) | – | inactive: 0.728%
O=C(Cn1cc(S(=O)(=O)Cc2ccccc2Cl)c2ccccc21)Nc1cccc(C(F)(F)F)c1 | inconclusive: 28.2 µM [inhibitor, single point] | –
Cc1ccc(S(=O)(=O)N(CC(=O)Nc2c(C)cccc2C)c2cccc(Cl)c2)cc1 | inconclusive: 28.2 µM [inhibitor, single point] | –
COC(=O)c1cc(C)nc2c1c(=O)nc(SCc1c(C)cc(C)cc1C)n2C1CC1 | inconclusive: 39.8 µM [inhibitor, single point] | –
Cc1ccc(NC(=O)COc2ccc(-c3nn(C)c(=O)c4ccccc34)cc2)c(C)c1 | inconclusive: 22.4 µM [inhibitor, single point] | –

SMILES | Potency | activity change, negative = inhibition
Cc1ccc(O)c([C@H](CCN(C(C)C)C(C)C)c2ccccc2)c1 | – | inactive: -3.64%
Cn1cc(S(=O)(=O)N2CCCCC2)cc1C(=O)NCc1ccc(Cl)cc1 | inconclusive: 25.1 µM [inhibitor, partial curve, poor fit] | –
CCC(CC)c1nn2cc(-c3ccccc3)nc2s1 | inconclusive: 3.16 µM [inhibitor, partial curve, poor fit] | –
COc1ccc(-c2cn3c(n2)sc2cc(C(=O)N4CCCCC4)ccc23)cc1 | inconclusive: 39.8 µM [inhibitor, single point] | –
Cc1cc(S(=O)(=O)Nc2ccc3[nH]c(=O)sc3c2)ccc1F | inconclusive: 31.6 µM [inhibitor, partial curve, poor fit] | –
CSc1nn(Cc2ccc(F)cc2)c(N)c1S(=O)(=O)c1ccc(Cl)cc1 | inconclusive: 28.2 µM [inhibitor, partial curve, poor fit] | –
Cc1ccccc1C(C(=O)NC1CCCC1)N(C(=O)Cn1cnc2ccccc21)c1cccc(F)c1 (stereo not drawn) | – | inactive: -3.11%
COc1cccc(CSc2nc(-c3ccccc3OC)nc3c2Cc2c(CO)cnc(C)c2O3)c1 | inconclusive: 20 µM [inhibitor, partial curve] | –
Cc1ccc(C(=O)CC2(O)C(=O)N(Cc3ccccc3)c3ccc(Br)cc32)cc1 (stereo not drawn) | inconclusive: 25.1 µM [inhibitor, single point] | –
CSc1cccc(NC(=O)CN(C)S(=O)(=O)c2ccc3c(c2)CCCN3C(C)=O)c1 | inconclusive: 22.4 µM [inhibitor, partial curve, poor fit] | –
Cc1ccc(-c2n[nH]c3c2C(c2cccs2)N(c2ccc(Cl)cc2)C3=O)cc1 (stereo not drawn) | inconclusive: 39.8 µM [inhibitor, single point] | –
CC1CCN(S(=O)(=O)c2cn(CC(=O)Nc3ccc(F)cc3)c(=O)c3ccccc23)CC1 | inconclusive: 14.1 µM [inhibitor, single point] | –
CO[C@@H]1[C@@H](OC)[C@H](C)[C@@](O)(CC(=O)O)O[C@H]1[C@H](C)[C@H]1O[C@@]2(CC[C@@](C)([C@H]3CC[C@@](C)([C@@H]4O[C@@H]([C@H]5O[C@](C)(O)[C@H](C)C[C@@H]5C)C[C@@H]4OC4C[C@H](OC)[C@@H](OC)[C@H](C)O4)O3)O2)C[C@H](O)[C@H]1C (stereo partly drawn) | inconclusive: 1 µM [inhibitor, full curve, poor fit] | –
CCn1cc2nc(SCc3cccc(F)c3)n(CCc3ccccc3)c(=O)c2n1 | inconclusive: 39.8 µM [inhibitor, single point] | –
COc1ccc(Cl)cc1NC(=O)CCCS(=O)(=O)c1nc(-c2ccc(OC)c(OC)c2)cc(C(F)(F)F)n1 | inconclusive: 39.8 µM [inhibitor, single point] | –
Cc1cc(C)n2c(Nc3cccc(C(F)(F)F)c3)c(-c3ccsc3)nc2n1 | inconclusive: 28.2 µM [inhibitor, single point] | –
CC(C)c1ccc(S(=O)(=O)c2cnc(SCC(=O)Nc3ccc(F)cc3F)nc2N)cc1 | inconclusive: 39.8 µM [inhibitor, single point] | –
O=C(CN1CCN(c2ccc(Cl)cc2)CC1)Nc1ccc(F)c(F)c1 | inconclusive: 28.2 µM [inhibitor, partial curve, poor fit] | –
